Activity calls are given as the source filed them. No cut-off for these calls is given here. Where a SMILES comes first, the peptide text is derived from it. [ ]: non-standard residue; d: D form. dPhe(4-Cl) = N[C@H](Cc1ccc(Cl)cc1)C(=O)O; d2Nal = N[C@H](Cc1ccc2ccccc2c1)C(=O)O; dCit = NC(=O)NCCC[C@@H](N)C(=O)O; d3Pal = N[C@H](Cc1cccnc1)C(=O)O
What was measured:
[1] = biological target: T1, Mas-related G-protein coupled receptor member X2 (Homo sapiens, UniProt Q96LB1); experiment: Agonist activity at MRGPRX2 (unknown origin) expressed in HTLA cells assessed as induction of beta-arrestin 2 recruitment incubated for 18 to 24 hrs by PRESTO-Tango assay; format: functional, cell-based
T1 sequence (Q96LB1 whole entry): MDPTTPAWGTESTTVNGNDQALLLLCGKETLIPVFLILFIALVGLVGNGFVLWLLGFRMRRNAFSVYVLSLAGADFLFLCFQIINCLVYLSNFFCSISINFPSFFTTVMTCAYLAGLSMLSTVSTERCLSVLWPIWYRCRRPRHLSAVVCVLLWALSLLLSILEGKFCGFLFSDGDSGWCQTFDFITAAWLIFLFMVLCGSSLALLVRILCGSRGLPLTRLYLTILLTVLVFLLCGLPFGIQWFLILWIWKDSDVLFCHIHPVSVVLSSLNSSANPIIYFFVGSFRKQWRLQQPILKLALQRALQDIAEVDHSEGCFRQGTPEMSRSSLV

[2] = biological target: T2, Mas-related G-protein coupled receptor member X2 (Homo sapiens) (UniProt Q96LB1); experiment: Agonist activity at N-terminal Flag-tagged human MRGPRX2 receptor expressed in tetracycline-induced FLP-IN/T-REX 293 cells assessed as increase in intracellular calcium release 0.003 to 100000 nM by FLIPR assay; format: functional, cell-based; conditions: dose 0.003-100000 nM
T2 sequence (whole entry): T1 sequence (Q96LB1 whole entry)
Method in brief: (§1)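 FLIPR calcium: FLP-IN/T-REX HEK-293-T stable line with N-terminal FLAG codon-optimized receptor, induced 24 h with 1 μg/mL tetracycline in 1% dialyzed FBS (uninduced cells as control); FLIPR calcium dye plus 2.5 mM probenecid 1 h 37°C; 10 s baseline, then drug in HBSS/20 mM HEPES/probenecid pH 7.4, 16-point curve 10 μM to 0.003 nM; fluorescence 120 s; fold over basal, n=3 triplicate.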

[3] = biological target: T1, Mas-related G-protein coupled receptor member X2; experiment: Agonist activity at N-terminal Flag-tagged human MRGPRX2 receptor expressed in tetracycline-induced FLP-IN/T-REX 293 cells assessed as increase in intracellular calcium release by FLIPR assay; format: functional, cell-based
[4] = biological target: T2, Mas-related G-protein coupled receptor member X2 (Homo sapiens); experiment: Agonist activity at MRGPRX2 receptor in human LAD2 cells assessed as increase in intracellular calcium release by FLIPR assay; format: functional, cell-based
Method in brief: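 LAD2 human mast cells seeded 50,000/well in Tyrode's buffer with calcium dye, 1 h before drug; 10 s baseline, drug added, fluorescence followed 120 s; expressed as fold calcium release over baseline; n=3 in triplicate.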

[5] = biological target: Kappa-type opioid receptor (Homo sapiens, UniProt P41145); experiment: Agonist activity at KOR (unknown origin) by Glo sensor assay; format: functional
UniProt P41145, sequence (P41145 whole entry): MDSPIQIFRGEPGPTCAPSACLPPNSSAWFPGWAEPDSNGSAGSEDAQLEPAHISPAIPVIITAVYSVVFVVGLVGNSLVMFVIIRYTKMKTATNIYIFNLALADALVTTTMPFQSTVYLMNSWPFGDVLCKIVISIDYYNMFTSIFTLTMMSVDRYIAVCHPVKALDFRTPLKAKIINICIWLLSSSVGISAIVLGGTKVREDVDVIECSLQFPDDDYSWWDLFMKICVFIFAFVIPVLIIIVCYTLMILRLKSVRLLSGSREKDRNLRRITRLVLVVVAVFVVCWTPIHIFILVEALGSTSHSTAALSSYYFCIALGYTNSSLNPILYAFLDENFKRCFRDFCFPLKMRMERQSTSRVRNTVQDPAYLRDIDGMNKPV

[6] = biological target: T2, Mas-related G-protein coupled receptor member X2 (Homo sapiens); experiment: Antagonist activity at MRGPRX2 (unknown origin) expressed in HTLA cells assessed as reduction in (+/-)-TAN-67 induced beta-arrestin 2 recruitment at 30 uM incubated for 18 to 24 hrs by PRESTO-Tango assay; format: functional, cell-based; conditions: time 18-24 hrs
[7] = biological target: T2, Mas-related G-protein coupled receptor member X2 (Homo sapiens); experiment: Agonist activity at N-terminal Flag-tagged human MRGPRX2 receptor expressed in tetracycline-induced FLP-IN/T-REX 293 cells assessed as increase in intracellular calcium release up to 100 uM by FLIPR assay; format: functional, cell-based; method in brief: as §1
[8] = biological target: T2, Mas-related G-protein coupled receptor member X2 (Homo sapiens); experiment: Agonist activity at N-terminal Flag-tagged human MRGPRX2 receptor expressed in HEK-T cells assessed as increase in intracellular calcium release by FLIPR assay; format: functional, cell-based; conditions: HEK-T cell; method in brief: as §1
[9] = biological target: T2, Mas-related G-protein coupled receptor member X2 (Homo sapiens); experiment: Agonist activity at N-terminal Flag-tagged human MRGPRX2 receptor expressed in tetracycline-induced HEK-T cells assessed as increase in intracellular calcium release by FLIPR assay; format: functional, cell-based; conditions: HEK-T cell, filed as agonist; method in brief: as §1

## CN1CC[C@]23Cc4nc5ccccc5cc4C[C@@]2(O)[C@H]1Cc1ccc(O)cc13
[1]; read-out: pEC50 (converted)
  EC50: 18.6 µM

## CN1CC[C@]23c4c5ccc(O[C@@H]6O[C@H](C(=O)O)[C@@H](O)[C@H](O)[C@H]6O)c4O[C@@]2(O)[C@@H](O)C=C[C@H]3[C@H]1C5
[1]; read-out: EC50
  EC50: 28 µM

## CC(C)C[C@H](NC(=O)[C@H](Cc1ccccc1)NC(=O)CNC(=O)CNC(=O)[C@@H](N)Cc1ccc(O)cc1)C(=O)N[C@@H](CCCN=C(N)N)C(=O)N[C@@H](CCCN=C(N)N)C(=O)O
[2]
  Activity: inactive

## NC(N)=NCCC[C@@H](N)C(=O)N[C@@H](CCCN=C(N)N)C(=O)N1CCC[C@H]1C(=O)N1C[C@H](O)C[C@H]1C(=O)NCC(=O)N[C@@H](Cc1cccs1)C(=O)N[C@@H](CO)C(=O)N1Cc2ccccc2C[C@@H]1C(=O)N1[C@H](C(=O)N[C@@H](CCCN=C(N)N)C(=O)O)C[C@@H]2CCCC[C@@H]21 [ICATIBANT]
[1]; read-out: pEC50 (converted)
  EC50: > 31.6 µM
[3]; read-out: pEC50 (converted)
  EC50: 28.2 µM

## C[C@H]1[C@H]2Cc3ccc(O)cc3[C@]1(C)CCN2CC1CC1
[4]
  Activity: inactive

## CC(=O)N[C@H](Cc1ccc2ccccc2c1)C(=O)N[C@H](Cc1ccc(Cl)cc1)C(=O)N[C@H](Cc1cccnc1)C(=O)N[C@@H](CO)C(=O)N[C@@H](Cc1ccc(O)cc1)C(=O)N[C@H](CCCNC(N)=O)C(=O)N[C@@H](CC(C)C)C(=O)N[C@@H](CCCNC(=N)N)C(=O)N1CCC[C@H]1C(=O)N[C@H](C)C(N)=O [CETRORELIX] (Ac-[d2Nal][dPhe(4-Cl)][d3Pal]SY[dCit]LRP[dA]-NH2)
[1]; read-out: pEC50 (converted)
  EC50: 0.813 µM
[3]; read-out: pEC50 (converted)
  EC50: 0.617 µM

## H-YGGFLRRIR-OH
[5]
  EC50: 0.000312 µM
[3]; read-out: EC50
  EC50: 10.6 µM

## Oc1ccc2c3c1O[C@H]1[C@H](N(CCCl)CCCl)CC[C@@]4(O)[C@@H](C2)N(CC2CC2)CC[C@]314
[6]
  Activity: inactive

## CN1CC[C@]23CCCC[C@H]2[C@H]1Cc1ccc(O)cc13 [LEVORPHANOL]
[1]; read-out: EC50
  EC50: 24 µM
[1]; read-out: pEC50 (converted)
  EC50: 22.4 µM
[3]; read-out: EC50
  EC50: 14 µM

## C[C@H]1[C@H]2Cc3ccc(O)cc3C1(C)CCN2C
[1]; read-out: pEC50 (converted)
  EC50: 19.1 µM
[3]; read-out: pEC50 (converted)
  EC50: 15.1 µM

## H-YGGFLRKYP-OH
[5]
  EC50: 0.0556 µM

## COc1ccc(CC2c3cc(OC)c(OC)cc3CC[N+]2(C)CCC(=O)OCCCCCOC(=O)CC[N+]2(C)CCc3cc(OC)c(OC)cc3C2Cc2ccc(OC)c(OC)c2)cc1OC (centres undefined)
[1]; read-out: pEC50 (converted)
  EC50: > 31.6 µM
[3]; read-out: pEC50 (converted)
  EC50: > 31.6 µM
[7]
  Activity: inactive

## COc1ccc2c(c1)[C@]13CCCC[C@@H]1[C@H](C2)N(C)CC3 [DEXTROMETHORPHAN]
[1]; read-out: pEC50 (converted)
  EC50: 3.24 µM
[8]
  Activity: inactive
[3]; read-out: pEC50 (converted)
  EC50: 5.89 µM
[9]
  Activity: Active

## H-KWDNQ-OH
[2]
  Activity: inactive

## C=CCN1C[C@H](C)N([C@H](c2ccc(C(=O)N(CC)CC)cc2)c2cccc(O)c2)C[C@H]1C
[4]
  Activity: inactive

## C[C@H]1COc2c(N3CCN(C)CC3)c(F)cc3c(=O)c(C(=O)O)cn1c23 [LEVOFLOXACIN ANHYDROUS]
[1]; read-out: pEC50 (converted)
  EC50: > 31.6 µM
[3]; read-out: pEC50 (converted)
  EC50: > 31.6 µM
[7]
  Activity: inactive
